Experimental data taken from PubChem BioAssay AID463173 (ICCB-Longwood Screening Facility, Harvard Medical School, 2010).
About 1,700 (3.3%) of roughly 52,000 compounds were called active. Cut-off read from the data, not from the text of the source: active = survival mostly below about 52% (no sharp cut-off); inactive = mostly above about 56%. The list shows a part of the results.

The molecules below were run on Wild type (assay: S. aureus survival, RN4220 and DeltatarO strains – OD600, teichoic acid synthesis inhibitors, primary screen (AID 463173)). Details: S. aureus RN4220 wild type/DeltatarO growth, OD600, 18 h, hits give low values, screened at 18.75 µg/mL (by protocol).

Structure (SMILES) | survival
COc1ccccc1C(=O)OCc1cc(=O)n2nc(-c3cccs3)sc2n1 | inactive: 67%
O=C(NCc1ccco1)C(c1ccccc1)N(C(=O)Cn1nnc2ccccc21)C1CCCC1 (centres undefined) | inactive: 100%
CCOC(=O)c1c(NC(=O)CCCOc2ccc(C(C)(C)C)cc2)sc2c1CCCC2 | active: 9%
COc1ccc(OC)c(NC(=O)c2cnc(N3CCCCC3)c3ccccc23)c1 | inactive: 68%
CCOc1ccc(-c2cc(NC(=O)Nc3ccc(Cl)cc3)c(C(=O)OC)s2)cc1 | inactive: 88%
CCCSc1ncc(Cl)c(C(=O)N(Cc2cccc(Cl)c2)C2CCS(=O)(=O)C2)n1 (centres undefined) | inactive: 90%
CCOc1ccccc1NC(=S)N1CCC(NC(=O)c2ccco2)CC1 | inactive: 106%
CCOC(=O)C1CCCN(S(=O)(=O)c2cc(Br)cc3c2N(C(C)=O)CC3)C1 (centres undefined) | inactive: 71%
Cc1cccc(C(c2sc3nc(-c4ccco4)nn3c2O)N2CCN(c3ccccc3F)CC2)c1 (centres undefined) | inactive: 93%
CNS(=O)(=O)c1ccc2c(c1)n(C)c(=O)n2C | inactive: 80%
CCC(=O)N1CCc2cc(S(=O)(=O)NCCC(=O)NCc3ccc(C)cc3)ccc21 | inactive: 79%
O=C1C2C3C=CC(C3)C2C(=O)N1Cc1ccccc1 (centres undefined) | inactive: 124%
COC(=O)c1ccc(NS(=O)(=O)c2ccc3[nH]c4c(c3c2)CCCC4)cc1 | active: 1%
O=C(NCCc1ccc(Cl)cc1)c1ccc2c(c1)N(Cc1ccc(F)cc1)C(=O)CS2 | active: 10%
CCc1ccc(NC(=O)[C@H](CSCc2ccccc2)N2Cc3ccccc3C2=O)cc1 | inactive: 79%
COc1ccc(-c2cc3c(=O)n(CC(=O)Nc4cc(F)ccc4F)ccn3n2)cc1OC | inactive: 72%
Cc1nn(-c2ccccc2)c2sc(C(=O)Nc3ccc(Br)cc3)cc12 | inactive: 52%
O=C1COc2ccc(-c3cc(-c4ccccc4)c4c(n3)-c3ccccc3OC4)cc2N1 | inactive: 81%
CCCn1c(SCC(O)c2ccccc2)nc2ccccc21 (centres undefined) | inactive: 86%
COc1cccc(CNC(=O)CCCn2ncn3c(cc4occc43)c2=O)c1 | inactive: 79%
CN(C)c1ccc(-c2nc(-c3cccs3)c(-c3cccs3)[nH]2)cc1 | inactive: 65%
COc1cc2nc(Nc3cccc(C)c3)nc(N)c2cc1OC | inactive: 65%
Cc1ccc(C(=O)NCC(c2ccco2)S(=O)(=O)c2cccs2)cc1C (centres undefined) | inactive: 99%

Structure (SMILES) | survival
COc1cc(-c2nc(=S)[nH][nH]2)cc(OC)c1OC | inactive: 88%
Cc1ccc(-c2noc(-c3ccccc3NC(=O)C3CC(=O)N(c4ccc(C)cc4)C3)n2)cc1 (centres undefined) | inactive: 86%
COC(=O)c1sc(-c2ccccc2)cc1NC(=O)Nc1ccc(Cl)cc1 | active: 4%
CC1=C(C(=O)NCc2ccccc2C)C2(CCCCCC2)OC1=O | inactive: 73%
CCCCN(Cc1cc2ccccc2[nH]c1=O)C(=O)c1cccc(Cl)c1 | inactive: 87%
O=C(Oc1ccc(F)cc1)c1nc(SCc2ccc(F)cc2)ncc1Cl | inactive: 87%
CCn1ccc(C(=O)Nc2sc(C(=O)OC)c(C)c2C(=O)OC)n1 | inactive: 100%
Cc1cc(OCCn2c(CCNC(=O)C3CCCCC3)nc3ccccc32)ccc1Cl | inactive: 67%
Cc1ccc(-c2nc(SCC(=O)NCC3CCCO3)c3c(=O)n(C)c(=O)n(C)c3n2)cc1 (centres undefined) | inactive: 73%
Cc1ccccc1N1CCN(S(=O)(=O)c2ccccc2)CC1 | inactive: 21%
Oc1c(C(c2ccccc2F)N2CCN(c3ccccc3F)CC2)sc2nc(-c3ccco3)nn12 (centres undefined) | inactive: 79%
CCOC(=O)CSC1=Nc2ccccc2C2=NC(CCC(=O)NCc3ccc(OC)cc3)C(=O)N12 (centres undefined) | inactive: 88%
N#Cc1ccccc1NC(=O)CNCC1CCCO1 (centres undefined) | inactive: 93%
COc1ccc(C)cc1NS(=O)(=O)c1ccc2c3c(cccc13)C(=O)N2 | inactive: 74%
COc1ccccc1Cn1ccn(Cc2ccc(C)cc2)c(=O)c1=O | inactive: 109%
Cc1cc(C)c(NC(=O)CSc2nccn2-c2cccc(Cl)c2)c(C)c1 | inactive: 102%
COc1ccc(CNC(=O)CCC2N=C3c4ccccc4N=C(SCc4ccccc4F)N3C2=O)cc1 (centres undefined) | active: 10%
CCCc1cc(N2CCN(c3cccc(C)c3C)CC2)n2cnnc2n1 | inactive: 75%
CCOC(=O)C(Cc1ccccc1)NC(=O)CCc1c(C)nc2nc(C)nn2c1C (centres undefined) | inactive: 72%
COc1ccc(NC(=O)c2sc3nc4c(cc3c2N)CCCCCC4)cc1 | inactive: 132%
COc1cccc(-n2c(-c3ccccc3F)nc3c(cnn3-c3ccc(C)cc3)c2=O)c1 | inactive: 78%
Cc1ccccc1NC(=O)CSc1nc(-c2ccccc2)cn1-c1ccccc1F | inactive: 85%
O=C(NC1CCCC1)c1ccc2c(=O)n(Cc3ccccc3)c(SCc3cccc([N+](=O)[O-])c3)nc2c1 | inactive: 124%

Structure (SMILES) | survival
Cc1ccccc1OCc1nc2c3cnn(-c4ccccc4F)c3ncn2n1 | inactive: 104%
COCCNC(=O)CSc1nc2cc3c(cc2c(=O)n1CCCC(=O)NCc1ccc2c(c1)OCO2)OCO3 | inactive: 71%
COc1ccc(CNC(=O)CSc2ncc3c(n2)-c2cc(Cl)ccc2N(Cc2ccccc2)S3(=O)=O)cc1 | inactive: 74%
CCOc1ccccc1C(=O)Nc1nncs1 | inactive: 100%
CCc1ccc(OCC(=O)Nc2cc(-c3ccc(C)cc3)no2)cc1 | inactive: 90%
CCOC(=O)Cn1c(=O)cc(C(F)(F)C(F)(F)F)c2c(C)nn(CC)c21 | inactive: 90%
Cc1ccc(Cl)cc1N1CCN(C(=O)Cn2c(-c3cccs3)cc3cc(F)ccc32)CC1 | inactive: 68%
CCOc1ccc(CNC(=O)C2CCN(C(=O)N3CC(CC)Oc4ccccc43)CC2)cc1 (centres undefined) | inactive: 119%
Cc1c(Cl)cccc1NC(=O)N1CCOc2ccccc21 | inactive: 99%
COC(=O)c1sccc1S(=O)(=O)N1CCN(c2ccc(C)cc2C)CC1 | inactive: 59%
CCCNC(=O)c1ccccc1NC(=O)c1nsc2ccccc12 | inactive: 98%
COc1cccc(NC(=O)CSc2ncc3c(n2)-c2ccc(Cl)cc2N(C)S3(=O)=O)c1 | active: 10%
CC(C)(C)c1ccc(C(=O)NC2(C(F)(F)F)NC(=O)N(CCc3ccccc3)C2=O)cc1 (centres undefined) | inactive: 43%
S=c1[nH]nc(Cc2ccccc2)n1Cc1ccccc1 | inactive: 108%
Cc1ccc(OCC(=O)Nc2ccc3nc(SCC(=O)Nc4ccc(C)cc4C)sc3c2)cc1 | inactive: 77%
Cc1ccc(NC(=O)NCCOCCn2c(=O)oc3ccccc32)cc1C | inactive: 80%
CCOc1ccc(CNC(=O)c2ccccc2NC(=O)c2nsc3ccccc23)cc1 | active: -6%
CCOc1ccccc1NC(=O)C(=O)NCCc1sc2nc(-c3ccc(OC)cc3)nn2c1C | inactive: 84%
Cc1ccc(Cn2c(=O)n(-c3ccc(C)cc3)c(=O)c3c2c2cc(C)ccc2n3C)cc1 | inactive: 64%
O=c1c(Cl)c(NC2CC2)cnn1-c1ccccc1 | inactive: 113%
COC(=O)c1ccc(NC(=O)CN2CCN(S(=O)(=O)c3ccc(Br)cc3)CC2)cc1 | inactive: 85%
COc1ccc(S(=O)(=O)N(CC(=O)Nc2cc(C)ccc2OC)Cc2ccccc2)cc1 | inactive: 69%
CCOc1ccccc1NS(=O)(=O)c1ccc2[nH]c3c(c2c1)CCCCC3 | inactive: 66%

Structure (SMILES) | survival
CCOc1ccc(CCNC(=O)c2cc3c(=O)n(C)c4ccccc4c3n2C)cc1OCC | inactive: 122%
Cc1c(-c2ccc(Cl)cc2)c(=O)oc2c(CN3CCN(CCO)CC3)c(O)ccc12 | inactive: 71%
O=C(CSc1cn(CC(=O)N2CCCCC2)c2ccccc12)NCc1ccc(F)cc1 | inactive: 92%
CCCN(CCC)CCCNC(=O)C1CCN(c2nc3ccc(CC)cc3s2)CC1 | inactive: 61%
Cc1ccc(NC(=O)Nc2ccc3nc(N4CCN(C)CC4)cc(C)c3c2)cc1F | inactive: 72%
N#C/C(=C\c1cccc(F)c1)c1nc(-c2cc3c(ccc4ccccc43)oc2=O)cs1 | inactive: 84%
CCOc1cc(C2c3c(oc4cc(C)cc(C)c4c3=O)C(=O)N2CCO)ccc1O (centres undefined) | inactive: 81%
Cc1c(Cl)cccc1NC(=O)C1CCCN(c2nnc(-n3c(C)ccc3C)s2)C1 (centres undefined) | inactive: 77%
O=C(NCc1ccc2c(c1)OCO2)c1ccc2c(c1)N(Cc1cccc(Cl)c1)C(=O)c1ccccc1S2=O (centres undefined) | inactive: 78%
COc1ccc(CNC(=O)Cn2c(=O)nc(-c3ccccc3F)c3cc(Cl)ccc32)cc1 | inactive: 59%
CCN(CC)C(=O)CSc1nc2cc3c(cc2c(=O)n1CCCCCC(=O)NCc1ccc(OC)cc1)OCO3 | active: -3%
CCN(CCCNC(=O)c1ccc(Sc2ccc(F)cc2)c(NC(C)=O)c1)c1ccccc1 | inactive: 72%
Cc1ccc(CSC2=Nc3ccccc3C3=NC(CCC(=O)NCc4cccs4)C(=O)N23)cc1 (centres undefined) | inactive: 128%
O=C(NCC(c1ccc2c(c1)OCO2)N1CCN(c2ccccc2)CC1)C(=O)Nc1cccc(F)c1 (centres undefined) | inactive: 65%
CC(=O)Nc1ccc(C(=O)CSc2nnc3scc(-c4ccccc4)n23)cc1 | inactive: 131%
Cc1ccc(F)cc1NC(=O)Cn1c(=O)nc(-c2ccccc2F)c2cc(Cl)ccc21 | inactive: 91%
COc1ccc(NC(=O)C(C)Sc2nc(N)cc(=O)[nH]2)cc1 (centres undefined) | inactive: 96%
Cc1ccc(-c2nc3c(C)cccn3c2Nc2ccccc2C)s1 | active: -2%
COc1ccc(C2=C(C)C(=O)N(Cc3ccc(C(=O)Nc4cccc(F)c4)cc3)S2(=O)=O)cc1 | inactive: 80%
CC1CCCN(c2nc3c(S(=O)(=O)c4ccc(C(C)C)cc4)nnn3c3ccsc23)C1 (centres undefined) | inactive: 58%
